Source: a collection of fitness landscapes (doi:10.1038/s41467-024-54723-y)
In all, about 18,000 sequences were measured (“TetR repression strength (sort-seq, GFP reporter)”: median about 0.23, highest 2% from about 0.68 on). This is one part of the list.

Molecular target: TetR (class B, Tn10) (UniProt P04483)
Assay: TetR repression strength (sort-seq, GFP reporter) (relative to tetO2 = 1); higher = stronger repression
Settings: E. coli
Procedure, shortened: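 Repression strength was calculated by subtracting the read-weighted mean bin from the top bin index plus one and dividing by the unaltered operator's value. The plasmid library was low-copy in E. coli SIG10-MAX, with eight randomized operator positions between a constitutive promoter and sfGFP and constitutive TetR. Cultures grew 5 h at 37 °C in LB containing 50 µg/mL chloramphenicol before 10^6 cells were sorted by FACS into 13 fluorescence bins, each sequenced on Illumina. Three independent transformations were averaged for members having ≥30 reads in all replicates and a CV ≤0.5.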

Chain of UniProt P04483 (P04483 whole entry): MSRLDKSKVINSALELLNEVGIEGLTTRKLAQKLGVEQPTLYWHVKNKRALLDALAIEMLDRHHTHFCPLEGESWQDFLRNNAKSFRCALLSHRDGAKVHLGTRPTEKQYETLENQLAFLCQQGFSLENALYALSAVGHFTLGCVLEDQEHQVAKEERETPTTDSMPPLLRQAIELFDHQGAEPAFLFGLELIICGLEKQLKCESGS

Going from TCCCCCTGAGTCTCGGAGA to TCCCTCTAAGTCATGGAGA, the TetR repression strength rises from 0.122 to 0.26.

Compared with TCCCAAGGAGTCTACGAGA, TCCCTCAAAGTGGAGGAGA is higher in TetR repression strength: 0.225 for the first, 0.33 for the second.

Compared with TCCCGGTAAGTGGTCGAGA, TCCCCGATAGTTAGGGAGA is higher in TetR repression strength: 0.0942 for the first, 0.269 for the second.

Compared with TCCCCAGAAGTGGAAGAGA, TCCCACCCAGTGATTGAGA is higher in TetR repression strength: 0.281 for the first, 0.357 for the second.

First: TCCCACTAAGTGATAGAGA
Second: TCCCGACAAGTTGGAGAGA
The TetR repression strength of the first is higher: 0.427 for the first, 0.0165 for the second.

Going from TCCCCTGAAGTCACGGAGA to TCCCACGAAGTTGAAGAGA, the TetR repression strength falls from 0.226 to 0.0582.

Going from TCCCCATGAGTTGGGGAGA to TCCCTGAGAGTTCGCGAGA, the TetR repression strength falls from 0.0962 to 0.0305.

Going from TCCCGGGCAGTTAGGGAGA to TCCCCAGAAGTGTACGAGA, the TetR repression strength falls from 0.442 to 0.174.

Going from TCCCCCGGAGTCCAGGAGA to TCCCGCATAGTTATAGAGA, the TetR repression strength rises from 0.104 to 0.31.

First: TCCCCCTTAGTCGATGAGA
Second: TCCCGTCGAGTCCCGGAGA
The TetR repression strength of the first is lower: 0.318 for the first, 0.402 for the second.

First: TCCCGACTAGTGGGGGAGA
Second: TCCCGTAAAGTACGTGAGA
The TetR repression strength of the first is higher: 0.264 for the first, 0.116 for the second.

Going from TCCCTAATAGTCAGTGAGA to TCCCTGGGAGTGCAGGAGA, the TetR repression strength falls from 0.206 to 0.171.

Going from TCCCAGTCAGTGGATGAGA to TCCCAACAAGTATGTGAGA, the TetR repression strength falls from 0.267 to 0.162.

Going from TCCCGGGCAGTGCCTGAGA to TCCCCGCTAGTGGATGAGA, the TetR repression strength rises from 0.283 to 0.286.

Compared with TCCCGACTAGTCAACGAGA, TCCCTAAGAGTGACGGAGA is lower in TetR repression strength: 0.317 for the first, 0.252 for the second.

First: TCCCAAAAAGTGGGGGAGA
Second: TCCCCCGCAGTCCCTGAGA
The TetR repression strength of the first is lower: 0.126 for the first, 0.333 for the second.

Going from TCCCAGCCAGTACATGAGA to TCCCGCGCAGTAAGGGAGA, the TetR repression strength falls from 0.311 to 0.238.

Compared with TCCCCTGTAGTAGGGGAGA, TCCCGTATAGTATGCGAGA is lower in TetR repression strength: 0.261 for the first, 0.024 for the second.

Going from TCCCATACAGTGGTAGAGA to TCCCCGAAAGTCCTAGAGA, the TetR repression strength falls from 0.419 to 0.353.

Compared with TCCCACGTAGTTTAAGAGA, TCCCGGCTAGTCAAGGAGA is lower in TetR repression strength: 0.161 for the first, 0.153 for the second.

Going from TCCCCGGCAGTATCCGAGA to TCCCGATGAGTTAATGAGA, the TetR repression strength rises from 0.147 to 0.196.

First: TCCCCCGTAGTTCGCGAGA
Second: TCCCAATAAGTTCACGAGA
The TetR repression strength of the first is lower: 0.181 for the first, 0.357 for the second.

First: TCCCAAGGAGTGTGGGAGA
Second: TCCCCACTAGTAAAAGAGA
The TetR repression strength of the first is lower: 0.177 for the first, 0.303 for the second.

First: TCCCAGTAAGTTGATGAGA
Second: TCCCAATCAGTGTGCGAGA
The TetR repression strength of the first is lower: 0.176 for the first, 0.364 for the second.

Compared with TCCCATTAAGTTTTTGAGA, TCCCGGGAAGTGTGAGAGA is lower in TetR repression strength: 0.223 for the first, 0.141 for the second.

First: TCCCCGTCAGTCTCTGAGA
Second: TCCCGGTTAGTATCGGAGA
The TetR repression strength of the first is lower: 0.235 for the first, 0.363 for the second.

Compared with TCCCTTGTAGTCCGCGAGA, TCCCATCCAGTATGCGAGA is lower in TetR repression strength: 0.394 for the first, 0.11 for the second.

First: TCCCAGACAGTCTAGGAGA
Second: TCCCGTCTAGTTCTGGAGA
The TetR repression strength of the first is lower: 0.359 for the first, 0.687 for the second.

Compared with TCCCGTGTAGTTCTTGAGA, TCCCGGCTAGTGGCCGAGA is higher in TetR repression strength: 0.0838 for the first, 0.166 for the second.

Compared with TCCCTAATAGTCCATGAGA, TCCCATATAGTGCAGGAGA is lower in TetR repression strength: 0.352 for the first, 0.0583 for the second.

Going from TCCCATCAAGTGACGGAGA to TCCCGATGAGTTCGGGAGA, the TetR repression strength falls from 0.218 to 0.164.

Compared with TCCCTAACAGTTATTGAGA, TCCCCATTAGTTTATGAGA is lower in TetR repression strength: 0.423 for the first, 0.135 for the second.

Going from TCCCATGTAGTGGGAGAGA to TCCCATGGAGTCAGGGAGA, the TetR repression strength falls from 0.392 to 0.332.

Going from TCCCGTTTAGTCCAGGAGA to TCCCCAGGAGTAGCGGAGA, the TetR repression strength falls from 0.22 to 0.137.

Compared with TCCCAGTAAGTAACGGAGA, TCCCGCTCAGTGATAGAGA is higher in TetR repression strength: 0.12 for the first, 0.742 for the second.

Going from TCCCGTGTAGTTAGGGAGA to TCCCTTTCAGTCTCAGAGA, the TetR repression strength falls from 0.467 to 0.316.

Compared with TCCCAGGTAGTACTGGAGA, TCCCAGCGAGTAAAGGAGA is higher in TetR repression strength: 0.234 for the first, 0.41 for the second.

Going from TCCCATTAAGTCAAGGAGA to TCCCGCATAGTCGTGGAGA, the TetR repression strength falls from 0.465 to 0.215.

Compared with TCCCTTTAAGTAGCGGAGA, TCCCCGTAAGTGAACGAGA is lower in TetR repression strength: 0.525 for the first, 0.351 for the second.

Going from TCCCGTAAAGTAAGCGAGA to TCCCAGTTAGTGAGGGAGA, the TetR repression strength rises from 0.018 to 0.0957.

First: TCCCGAGTAGTAGGAGAGA
Second: TCCCGTTAAGTCATGGAGA
The TetR repression strength of the first is higher: 0.21 for the first, 0.0791 for the second.

Going from TCCCCAGTAGTGCTTGAGA to TCCCTCATAGTTGGGGAGA, the TetR repression strength falls from 0.676 to 0.156.

Compared with TCCCATACAGTTTGAGAGA, TCCCTTCAAGTAACTGAGA is higher in TetR repression strength: 0.373 for the first, 0.458 for the second.

Compared with TCCCCGGAAGTCTAAGAGA, TCCCGTTTAGTGGCGGAGA is lower in TetR repression strength: 0.345 for the first, 0.173 for the second.

Going from TCCCGGTAAGTATGAGAGA to TCCCCCTGAGTCGAGGAGA, the TetR repression strength falls from 0.336 to 0.0472.

Going from TCCCAAGTAGTAACTGAGA to TCCCCTGCAGTTCTAGAGA, the TetR repression strength rises from 0.126 to 0.623.

First: TCCCCGGCAGTGAGGGAGA
Second: TCCCTTCCAGTCGCCGAGA
The TetR repression strength of the first is lower: 0.167 for the first, 0.399 for the second.

First: TCCCGGCGAGTGCCAGAGA
Second: TCCCGAGGAGTACATGAGA
The TetR repression strength of the first is lower: 0.216 for the first, 0.221 for the second.

Compared with TCCCGAAAAGTGATGGAGA, TCCCCAGAAGTGTAGGAGA is lower in TetR repression strength: 0.292 for the first, 0.177 for the second.

First: TCCCCATTAGTCACTGAGA
Second: TCCCACGGAGTAAGAGAGA
The TetR repression strength of the first is higher: 0.323 for the first, 0.179 for the second.

Compared with TCCCCGGCAGTGGGGGAGA, TCCCGTTGAGTGTGCGAGA is higher in TetR repression strength: 0.19 for the first, 0.234 for the second.
